Reference: PubChem BioAssay AID624296 (National Center for Advancing Translational Sciences (NCATS), 2012)
Out of some 350,000 compounds screened, about 9,900 (2.8%) were called active. Inconclusive means that the source gave no clear call. Such entries were picked first, then a sample of the others. Calls come from the whole dose curve; as a rule, active = well fitted activation curve with a large enough effect; inconclusive = small, poorly fitted or top-dose-only effect; inactive = no such curve, though single readings can be large or run the other way. No potency is given beside an inconclusive call; the fits are too rough.

assay: A quantitative high throughput screen for small molecules that induce DNA re-replication in MCF 10a normal breast cells.; note: nearly all actives have a fitted effect of over 50% in size; for activity, positive = re-replication: % of control where 0% means no effect; conditions: MCF 10A DNA re-replication, Hoechst nuclear intensity, 48 h; activity, positive = re-replication: at 46.1 µM (top of the series)
Potency is the fitted concentration of half-maximal effect; tags give direction and shape of the fitted curve.

Compound | Potency | activity, positive = re-replication
Cc1ncc(CN2CCC(C(=O)Nc3ccc(Oc4cccnc4)cc3)CC2)cn1 | inconclusive [activator, single point] | –
COc1ccc2c(c1)c(C(=O)N/N=C/c1ccc(Cl)cc1)c(C)n2C | inconclusive [activator, single point] | –
CS(=O)(=O)N1CCc2cc(S(=O)(=O)Nc3ccc4oc5c(c4c3)CCCC5)ccc21 | inconclusive [activator, single point] | –
COc1ccc(NC(=O)CN(c2ccc([N+](=O)[O-])cc2)S(=O)(=O)c2ccccc2)cc1 | inconclusive [activator, single point] | –
Cc1nc(SCC(=O)c2ccccc2)[nH]c(=O)c1Oc1ccc(Cl)cc1 | inconclusive [activator, single point] | –
Cc1c(CCOC(=O)CC23CC4CC(CC(C)(C4)C2)C3)sc[n+]1Cc1ccc([N+](=O)[O-])cc1 | inconclusive [activator, partial curve, poor fit] | –
Cc1ccc(NC(=O)c2cc(CC(C)C)nc3ccccc23)cc1 | inactive | –
O=C(Cc1ccccc1)N(c1ccc(F)cc1)C1C=CS(=O)(=O)C1 (stereo not drawn) | inconclusive [activator, partial curve, poor fit] | –
CCCSc1nc2sc3c(c2c(=O)[nH]1)CCN(Cc1ccccc1)C3 | inconclusive [activator, single point] | –
CC1=CCC2C(=O)N(c3cccc(C(=O)NCc4ccccc4)c3)C(=O)C2C1 (stereo not drawn) | inconclusive [activator, single point] | –
Cc1cccc(/C=C2/Sc3ccc(C(=O)NCCN4CCCC4)cc3NC2=O)c1 | inconclusive [activator, single point] | –
Cc1ccc(O)c(C(=O)c2cc(C#N)c3nc4ccccc4n3c2)c1 | inconclusive [activator, single point] | –
CC(C)OC(=O)/C(=C\c1ccc2c(c1)c1ccccc1n2C)NC(=O)c1ccccc1 | inconclusive [activator, full curve, poor fit] | –
O=C(NCc1ccccc1)C1=C[C@@H](C2CC2)C[C@@H](OCCCCO)O1 | inconclusive [activator, single point] | –
Cc1ccc(-c2csc(NC3OC(=O)c4ccccc43)n2)cc1 (stereo not drawn) | inconclusive [activator, single point] | –
CN1CCN(CCC(=O)N/N=C/C=C2\N(C)c3ccccc3C2(C)C)CC1 | inconclusive [activator, single point] | –
Cc1ccc(C(=O)NNC(=O)C(NC(=O)c2cccc(C)c2)C(C)C)cc1 (stereo not drawn) | inactive | –
COc1cnc(-c2ccccn2)nc1N(C)c1ccccc1 | inconclusive [activator, partial curve, poor fit] | –
CCOC(=O)c1c(C)[nH]c(C(C)=NNC(=O)c2cccs2)c1C | inconclusive [activator, single point] | –
CCCCCCCCCCCCN1[C@@H](CC(=O)O)c2cc(F)ccc2S1(=O)=O | inconclusive [activator, single point] | –
CN(C)C(CNC(=O)C1CCN(S(=O)(=O)c2cccc(C(F)(F)F)c2)CC1)c1ccccc1 (stereo not drawn) | inconclusive [activator, single point] | –

Compound | Potency | activity, positive = re-replication
O=C(Nc1ccc(Cl)c([N+](=O)[O-])c1)C(Sc1ccccc1)c1ccccc1 (stereo not drawn) | inconclusive [activator, single point] | –
COc1cccc(CNC(=O)[C@@H](C)N2C(=O)N3CCc4c([nH]c5ccc(OC)cc45)C3(C)C2=O)c1 (stereo partly drawn) | inconclusive [activator, partial curve, poor fit] | –
O=C(OCC(=O)N1CCCC1=O)C1COc2ccccc2O1 (stereo not drawn) | inactive | –
C[C@@]12C(=O)Nc3ccc(Cl)cc3C(=O)N1[C@H]1c3ccccc3OC[C@@H]1[C@@H]2c1ccccc1 | inconclusive [activator, partial curve, poor fit] | –
COCCN(C(=O)CSc1nnc2cc(C)c3ccccc3n12)c1c(N)n(Cc2ccccc2)c(=O)[nH]c1=O | inconclusive [activator, partial curve, poor fit] | –
CN(C)CCCNC1=CC(=O)CC(c2ccccc2)C1 (stereo not drawn) | inactive | –
CCOc1cccc(C2NC(=S)NC(C)=C2C(=O)Nc2ccccc2)c1 (stereo not drawn) | inconclusive [activator, single point] | –
O=C(c1cc([N+](=O)[O-])cc([N+](=O)[O-])c1)N1CCOCC1 | inconclusive [activator, full curve, poor fit] | –
CC1=NN(c2ccccc2)C(=O)C1N=Nc1ccccc1 (stereo not drawn) | inactive | –
N#Cc1ccccc1Sc1ccccc1C(=O)Nc1ccc2ccccc2c1 | inconclusive [activator, partial curve, poor fit] | –
CC1CCCCC1NS(=O)(=O)CCNC(=O)c1ccccc1 (stereo not drawn) | inactive | –
CC(=O)N1CCN(C(=S)Nc2ccc(SC(F)F)cc2)CC1 | inactive | –
COc1ccccc1C(=O)Nc1c(C)cc(Br)cc1C | inconclusive [activator, single point] | –
CCn1c(SCC(=O)c2ccccc2)nc2sc3c(c2c1=O)CCN(C)C3 | inactive | –
CCOC(=O)C1CCN(C(=O)c2ccc3c(c2)NC(=O)/C(=C\c2cccc(C)c2)S3)CC1 | inconclusive [activator, partial curve, poor fit] | –
CCN1CCN(C2=C(NS(=O)(=O)c3ccccc3)C(=O)c3ccccc3C2=O)CC1 | inconclusive [activator, single point] | –
CCOC(=O)N1CCN(S(=O)(=O)c2ccc3c(c2)SCC(=O)N3)CC1 | inactive | –
O=C(Nc1nccs1)c1cc2c(s1)CCCCC2 | inactive | –
CCCCn1c(=O)[nH]c(=O)c2c1nc(-c1ccc(-c3ccccc3Br)o1)n2CC | inconclusive [activator, partial curve, poor fit] | –
COc1ccccc1C(=O)NCC(c1ccco1)N1CCc2ccccc21 (stereo not drawn) | inconclusive [activator, single point] | –
Cc1cccc(NC(=S)N2CCC(N(C)CC3CCCO3)CC2)c1 (stereo not drawn) | inactive | –

Compound | Potency | activity, positive = re-replication
CCN(Cc1ccccc1)C(=O)c1ccccc1C | inactive | –
CN(Cc1ccon1)Cc1cn(C)nc1-c1cccc(Cl)c1 | inconclusive [activator, single point] | –
COc1ccccc1CC(=O)c1ccc(OCc2ccccc2)cc1 | inconclusive [activator, single point] | –
Cc1ccc2[nH]c3c(N4CCc5ccccc5C4)ncnc3c2c1 | inconclusive [activator, single point] | –
CCOC(=O)c1cnc2c(Cl)cccc2c1NCCN(C)C | inconclusive [activator, partial curve, poor fit] | –
Cc1ccc(OCC(=O)OC2CCCN(C)C2)cc1 (stereo not drawn) | inconclusive [activator, partial curve, poor fit] | –
Cc1nn(CC(=O)Nc2ccc3nc4n(c(=O)c3c2)CCCC4)c(C)c1[N+](=O)[O-] | inconclusive [activator, partial curve, poor fit] | –
C(=N\NC1=Nc2cccc3cccc1c23)/c1cccnc1 | inconclusive [activator, single point] | –
O=C(CCNC(=O)c1ccccc1)Nc1ccc(Cl)c(S(=O)(=O)N2CCCCC2)c1 | inactive | –
Cc1ccc(NC(=O)CC2SC(=NC3CCCCC3)NC2=O)cc1 (stereo not drawn) | inconclusive [activator, partial curve, poor fit] | –
O=C(COC(=O)c1ccccc1NS(=O)(=O)c1ccc(Cl)cc1)NCc1ccccc1 | inconclusive [activator, single point] | –
COc1ccc(S(=O)(=O)N2CCCCCC2)cc1C(=O)NCCc1ccc(F)cc1 | inconclusive [activator, partial curve] | –
COc1cc(OC)cc(C(=O)N/N=C/c2ccc(OC)c(COc3ccc4ccccc4c3)c2)c1 | inconclusive [activator, single point] | –
Cc1cccc(N2CCN(c3ccc(N4C(=O)CCCC4=O)cc3[N+](=O)[O-])CC2)c1C | inconclusive [activator, partial curve, poor fit] | –
CC(C)(C)c1ccc(Oc2ccc(NC(=O)c3cccs3)cn2)cc1 | inconclusive [activator, partial curve, poor fit] | –
Cc1cccc(C)c1OC(=O)C(c1ccccc1)c1ccccc1 | inconclusive [activator, single point] | –
NC(=O)CC1C(=O)N(c2ccc(Cl)cc2)C(=S)N1NC(=O)c1cccc(F)c1 (stereo not drawn) | inactive | –
COC(=O)COc1ccc(S(=O)(=O)NCc2ccncc2)cc1 | inconclusive [activator, partial curve, poor fit] | –
COc1ccc(-n2cc(CN3CCCC3)c(-c3cccc(F)c3)n2)cc1 | inconclusive [activator, single point] | –
CC(C)CN(C(=O)COC(=O)c1cncc(Br)c1)c1c(N)n(Cc2ccccc2)c(=O)[nH]c1=O | – | inconclusive: 45.5% [activator]
COc1ccc(-c2cc(C(F)(F)F)n3ncc(C(=O)N4CCCCC4c4cccnc4)c3n2)cc1 (stereo not drawn) | inconclusive [activator, single point] | –
